From the supplement of paper PMC7125110
± gives the standard error. This sample is rich in variants without activity.

B1: glmS ribozyme (parent)
chain: AUAAAAGCGCCAGAACUACAGAAAUGUAGUUGACGAGGAGGAGGUUUAUCGAAUUUUCGGCGGAUGCCUCCAAA

What was measured:
Details in all cases: with glucosamine-6-phosphate
glucosamine-6-phosphate [1] = variants of: B1; experiment: self-cleavage kobs at 40 uM GlcN6P; higher = faster cleavage; RNA array
Outline: (§1)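 Tiles of sequenced MiSeq chips were imaged over ~14 h at 37 °C. On them, barcoded ribozyme variants had been transcribed in situ by E. coli RNA polymerase and were tracked via a hybridised Cy3 probe while glucosamine-6-phosphate (40 μM to 10 mM) in HEPES/KCl/Mg(OAc)2 buffer flowed in. Per-tile medians, normalised to baseline and to non-cleaving reference variants, were fit to one- or two-exponential decays for kobs, and weighted Michaelis–Menten fits gave kcat and KM.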

glucosamine-6-phosphate [2] = variants of: B1; experiment: self-cleavage kobs at 10000 uM GlcN6P; higher = faster cleavage; RNA array
Outline: as §1

glucosamine-6-phosphate [3] = variants of: B1; experiment: self-cleavage kobs at 2500 uM GlcN6P; higher = faster cleavage; RNA array
Outline: as §1

glucosamine-6-phosphate [4] = variants of: B1; experiment: self-cleavage kobs at 640 uM GlcN6P; higher = faster cleavage; RNA array
Outline: as §1

glucosamine-6-phosphate [5] = variants of: B1; experiment: self-cleavage kobs at 160 uM GlcN6P; higher = faster cleavage; RNA array
Outline: as §1

Row | Variant | self-cleavage kobs at 40 uM GlcN6P (glucosamine-6-phosphate [1]) [s⁻¹] | self-cleavage kobs at 10000 uM GlcN6P (glucosamine-6-phosphate [2]) [s⁻¹] | self-cleavage kobs at 2500 uM GlcN6P (glucosamine-6-phosphate [3]) [s⁻¹] | self-cleavage kobs at 640 uM GlcN6P (glucosamine-6-phosphate [4]) [s⁻¹] | self-cleavage kobs at 160 uM GlcN6P (glucosamine-6-phosphate [5]) [s⁻¹]
1 | A36C G62A C67U | < 1e-05 | < 1e-05 | – | – | –
2 | G37A C68U C70U | < 1e-05 | – | – | – | –
3 | G37A C50G C58A C67A C71U | 4.39e-05 ± 1.4e-05 | – | 6.21e-05 ± 1.7e-05 | – | –
4 | G37A U47A | 4.6e-05 ± 1.8e-05 | 0.00229 ± 0.00044 | 0.000752 ± 0.00014 | 0.000278 ± 4.8e-05 | 7.83e-05 ± 1.8e-05
5 | A36G G59A | < 1e-05 | < 1e-05 | < 1e-05 | < 1e-05 | < 1e-05
6 | A36G G59C | < 1e-05 | < 1e-05 | < 1e-05 | < 1e-05 | < 1e-05
7 | A36U U49G C50G | < 1e-05 | – | < 1e-05 | – | –
8 | A36U U56G | < 1e-05 | – | – | – | < 1e-05
9 | G35U G62A | < 1e-05 | – | – | – | –
10 | G35U G62U | < 1e-05 | < 1e-05 | < 1e-05 | < 1e-05 | –
11 | A36G G37U G41C U57C G59U A64G | < 1e-05 | < 1e-05 | – | – | –
12 | A36C U46C C50U C68A | < 1e-05 | < 1e-05 | – | – | –
13 | A36U U54A C67A | < 1e-05 | < 1e-05 | < 1e-05 | < 1e-05 | –
14 | A36U U45A C58A | < 1e-05 | < 1e-05 | – | – | –
15 | A36C A48U A64U | < 1e-05 | – | – | – | –
16 | G37A G59C | < 1e-05 | < 1e-05 | < 1e-05 | < 1e-05 | –
17 | G37A A64C | < 1e-05 | – | – | < 1e-05 | –
18 | A36U G43U C50U | < 1e-05 | – | – | – | –
19 | A36U G43U U57G C68U | < 1e-05 | < 1e-05 | – | – | –
20 | A36G G41U | < 1e-05 | < 1e-05 | – | < 1e-05 | < 1e-05
21 | G37C A39U | < 1e-05 | – | – | – | < 1e-05
22 | A36C U46G | < 1e-05 | < 1e-05 | – | – | –
23 | A36U A64U | < 1e-05 | < 1e-05 | < 1e-05 | < 1e-05 | < 1e-05
24 | A36U U54C | < 1e-05 | – | – | < 1e-05 | < 1e-05

Row | Variant | self-cleavage kobs at 40 uM GlcN6P (glucosamine-6-phosphate [1]) [s⁻¹] | self-cleavage kobs at 10000 uM GlcN6P (glucosamine-6-phosphate [2]) [s⁻¹] | self-cleavage kobs at 2500 uM GlcN6P (glucosamine-6-phosphate [3]) [s⁻¹] | self-cleavage kobs at 640 uM GlcN6P (glucosamine-6-phosphate [4]) [s⁻¹] | self-cleavage kobs at 160 uM GlcN6P (glucosamine-6-phosphate [5]) [s⁻¹]
25 | A36G G66A | < 1e-05 | – | – | – | < 1e-05
26 | A36G G38C U55A | < 1e-05 | < 1e-05 | – | – | –
27 | A36G G43A C58A G62C C68G | < 1e-05 | < 1e-05 | – | – | –
28 | A36C U54C A64U C67G | < 1e-05 | – | – | – | –
29 | A36U U46A G51A | < 1e-05 | < 1e-05 | < 1e-05 | – | –
30 | A36U C50U U57C C61U | < 1e-05 | – | – | – | –
31 | A36C A39C A48C | < 1e-05 | < 1e-05 | – | < 1e-05 | –
32 | A36C U65G C70U | < 1e-05 | < 1e-05 | – | – | –
33 | G37C A42C | < 1e-05 | – | – | – | < 1e-05
34 | A36G A39G G44C C68G | < 1e-05 | < 1e-05 | – | – | –
35 | G37A C50A G59A G66A | < 1e-05 | – | – | – | –
36 | G35U U65C | < 1e-05 | – | < 1e-05 | < 1e-05 | < 1e-05
37 | A36G G44A | < 1e-05 | < 1e-05 | < 1e-05 | < 1e-05 | < 1e-05
38 | A36U C61U | < 1e-05 | – | < 1e-05 | – | –
39 | A36U A64C C70U | < 1e-05 | – | – | – | –
40 | G35U U57G C61G U69A | < 1e-05 | < 1e-05 | – | – | –
41 | A36G U49C | < 1e-05 | < 1e-05 | – | < 1e-05 | < 1e-05
42 | G37C C58U | < 1e-05 | < 1e-05 | – | – | –
43 | G37A G44A | < 1e-05 | – | – | – | < 1e-05
44 | A36C A48C | < 1e-05 | < 1e-05 | – | < 1e-05 | < 1e-05
45 | A36U G44C U47G | < 1e-05 | < 1e-05 | – | – | –
46 | G37A G63U | < 1e-05 | – | – | < 1e-05 | < 1e-05
47 | A36U G62C A64U | < 1e-05 | – | – | – | –
48 | A36U G41U | < 1e-05 | < 1e-05 | – | – | < 1e-05

Row | Variant | self-cleavage kobs at 40 uM GlcN6P (glucosamine-6-phosphate [1]) [s⁻¹] | self-cleavage kobs at 10000 uM GlcN6P (glucosamine-6-phosphate [2]) [s⁻¹] | self-cleavage kobs at 2500 uM GlcN6P (glucosamine-6-phosphate [3]) [s⁻¹] | self-cleavage kobs at 640 uM GlcN6P (glucosamine-6-phosphate [4]) [s⁻¹] | self-cleavage kobs at 160 uM GlcN6P (glucosamine-6-phosphate [5]) [s⁻¹]
49 | G37C A39G C50U | < 1e-05 | – | – | – | –
50 | A36U C67U C70G | 7.02e-05 ± 2.8e-05 | – | – | – | –
51 | G35U G66U | < 1e-05 | < 1e-05 | < 1e-05 | < 1e-05 | < 1e-05
52 | A36C U45C U47A | < 1e-05 | < 1e-05 | < 1e-05 | < 1e-05 | –
53 | G37A C50U | < 1e-05 | – | < 1e-05 | – | < 1e-05
54 | G37C G41A | < 1e-05 | < 1e-05 | – | – | –
55 | A36C G59U | < 1e-05 | < 1e-05 | < 1e-05 | – | < 1e-05
56 | A36G G51C | < 1e-05 | < 1e-05 | – | – | –
57 | A36U U45A U46C C68G C71U | < 1e-05 | < 1e-05 | < 1e-05 | – | < 1e-05
58 | A36G G37U G41C | < 1e-05 | < 1e-05 | < 1e-05 | – | –
59 | A36G C61U | < 1e-05 | < 1e-05 | – | < 1e-05 | < 1e-05
60 | G37A U65G | < 1e-05 | 0.000191 ± 2.3e-05 | 0.000102 ± 1.2e-05 | 4.13e-05 ± 1.5e-05 | –
61 | A36U U47C A64U | < 1e-05 | – | – | – | –
62 | A36C A52G G66U C70U | < 1e-05 | – | < 1e-05 | – | –
63 | A36C G62U | < 1e-05 | – | < 1e-05 | – | < 1e-05
64 | A36C G62C | < 1e-05 | – | – | – | < 1e-05
65 | G37C G40C G51C | < 1e-05 | < 1e-05 | – | – | –
66 | A36C G38U C68G | < 1e-05 | – | – | – | –
67 | A36C G44U | < 1e-05 | < 1e-05 | < 1e-05 | < 1e-05 | < 1e-05
68 | A36G A64C | < 1e-05 | – | < 1e-05 | < 1e-05 | –
69 | A36G A64U | < 1e-05 | < 1e-05 | – | < 1e-05 | < 1e-05
70 | A36G A64G | < 1e-05 | – | – | – | < 1e-05
71 | A36U G59C G63A G66U | < 1e-05 | < 1e-05 | < 1e-05 | – | –
72 | A36C G38U G43U C50G G66U | < 1e-05 | – | < 1e-05 | < 1e-05 | –

Row | Variant | self-cleavage kobs at 40 uM GlcN6P (glucosamine-6-phosphate [1]) [s⁻¹] | self-cleavage kobs at 10000 uM GlcN6P (glucosamine-6-phosphate [2]) [s⁻¹] | self-cleavage kobs at 2500 uM GlcN6P (glucosamine-6-phosphate [3]) [s⁻¹] | self-cleavage kobs at 640 uM GlcN6P (glucosamine-6-phosphate [4]) [s⁻¹] | self-cleavage kobs at 160 uM GlcN6P (glucosamine-6-phosphate [5]) [s⁻¹]
73 | A36U A39U | < 1e-05 | < 1e-05 | < 1e-05 | < 1e-05 | < 1e-05
74 | A36G C58G | < 1e-05 | < 1e-05 | < 1e-05 | – | –
75 | G37A A39U A42G C50U | < 1e-05 | – | – | – | –
76 | A36U A42G A48G | < 1e-05 | – | < 1e-05 | – | –
77 | A36G U54G | < 1e-05 | – | – | – | –
78 | G37A G38U G40A | < 1e-05 | < 1e-05 | < 1e-05 | – | –
79 | G35U G63A | < 1e-05 | < 1e-05 | < 1e-05 | < 1e-05 | < 1e-05
80 | A36C U55C C68A C71A | < 1e-05 | – | < 1e-05 | – | –
81 | G37C G40C | < 1e-05 | < 1e-05 | – | < 1e-05 | < 1e-05
82 | A36U G62U | < 1e-05 | < 1e-05 | < 1e-05 | – | –
83 | A36G G51C G60A | < 1e-05 | < 1e-05 | – | – | –
84 | A36U C58G C70A | 8.19e-05 ± 2.5e-05 | 5.18e-05 ± 1.5e-05 | 4.59e-05 ± 2.3e-05 | – | 0.000111 ± 3.1e-05
85 | A36G U46G | < 1e-05 | < 1e-05 | – | < 1e-05 | < 1e-05
86 | A36C U57C | < 1e-05 | < 1e-05 | – | < 1e-05 | –
87 | A36C U57G | < 1e-05 | < 1e-05 | < 1e-05 | < 1e-05 | < 1e-05
88 | G37A C50U U65G C68G | < 1e-05 | – | – | – | < 1e-05
89 | A36C A42C | < 1e-05 | < 1e-05 | – | – | < 1e-05
90 | A36U G51U A64G C70U | < 1e-05 | – | – | – | –
91 | G37A C50G A53G | < 1e-05 | – | – | – | –
92 | A36U G66C | < 1e-05 | – | – | – | < 1e-05
93 | A36G G38A | < 1e-05 | < 1e-05 | – | < 1e-05 | –
94 | A36U A42C | < 1e-05 | – | < 1e-05 | < 1e-05 | < 1e-05
95 | A36G A42U G44U G66A | < 1e-05 | < 1e-05 | – | – | –
96 | G37A G41C | < 1e-05 | – | – | – | –
